Test results reported in PubChem BioAssay AID485297 (National Center for Advancing Translational Sciences (NCATS), 2010).
About 9,100 (2.8%) of roughly 320,000 compounds were called active. Inconclusive results, whose numbers are uncertain, are shown with a selection of clear calls. The call rests on the fitted dose curve; in most records, active means well fitted activation curve with a large enough effect; inconclusive means small, poorly fitted or top-dose-only effect; inactive means no such curve, though single readings can be large or run the other way. Potencies of inconclusive entries are left out as doubtful fits.

Experiment: qHTS Assay for Rab9 Promoter Activators; further: nearly all actives have a fitted effect of over 60% in size; on activation, negative = inhibition: % of control where 0% means no effect
Conditions: Huh7 Rab9 promoter-luciferase reporter, luminescence, 24 h; series mostly up to 9.22 µM; activation, negative = inhibition: at the top concentration
Procedure, shortened: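 Cell-based reporter: Huh7 stable for Rab9 promoter-driven luciferase, plated in reduced-serum medium with 10% FBS at 1500 cells/well, compound-treated 24 h at 37 °C, luminescence read after 10 min reagent.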
Potency means the concentration at half of the fitted maximal effect; tags describe the fitted curve by direction and shape.

Q: Which Potency does the source give for Cc1ccc(NC(=O)CCC(=O)c2cccs2)c(Br)c1 here?
A: active: 3.55 µM

Q: With CCC(=O)n1nc(-c2ccc(Cl)cc2)nc1SC as the compound, how does the Potency read?
A: inconclusive [activator, single point]

Q: For CNS(=O)(=O)c1ccc(NC(=O)Nc2ccc3c(c2)OCO3)cc1, which Potency is on record?
A: active: 3.55 µM

Q: With Cc1ccc(C)c(CN2C(=O)c3ccccc3S(=O)c3ccc(C(=O)N4CCN(c5ccccn5)CC4)cc32)c1 (configuration not stated) as the compound, how does the “activation, negative = inhibition” value read?
A: inactive: 0.845%

Q: With Cc1[nH]c2ccc(C(=O)NC3CCC(C)CC3)cc2c1C (configuration not stated) as the compound, how does the Potency read?
A: inconclusive [activator, single point]

Q: For O=C(N/N=C/c1ccc([N+](=O)[O-])o1)c1cc(-c2ccc(-c3ccccc3)cc2)nc2ccccc12, which Potency is on record?
A: inconclusive [activator, partial curve]

Q: With CCC(=O)Nc1cccc(-c2cc3ccccc3oc2=O)c1 as the compound, how does the Potency read?
A: inconclusive [activator, partial curve]

Q: Which “activation, negative = inhibition” value does the source give for NC(=O)c1ccc(NC(=O)COc2coc(CN3CCc4ccccc4C3)cc2=O)cc1 here?
A: inactive: -1.34%

Q: For Clc1ccccc1CN1CCN(/N=C/C=C\c2ccco2)CC1, which Potency is on record?
A: inconclusive [activator, single point]

Q: For CCOC(=O)c1[nH]c(C)c(C(=O)NCCC2=CCCCC2)c1C, which Potency is on record?
A: inconclusive [activator, single point]

Q: Which Potency does the source give for CN1CCN(CCCOc2ccc(-c3ccccc3)cc2)CC1 here?
A: inconclusive [activator, partial curve]

Q: For N/C(Cc1ccc(Cl)c(Cl)c1)=N\OC(=O)c1ccc(Br)o1, which “activation, negative = inhibition” value is on record?
A: inactive: -1.75%

Q: Which Potency does the source give for CCc1ccc(NC(=O)c2ccccc2Br)cc1 here?
A: active: 2 µM

Q: Which Potency does the source give for CCOC(=O)CSc1nc(C)c(C(C)=O)cc1C#N here?
A: inconclusive [activator, single point]

Q: With CCc1ccc(NC(=O)c2cccc(NC3=NC4CS(=O)(=O)CC4S3)c2)cc1 (configuration not stated) as the compound, how does the “activation, negative = inhibition” value read?
A: inactive: 8.27%

Q: Which “activation, negative = inhibition” value does the source give for Oc1ccc(CNCc2ccc3c(c2)OCO3)c2cccnc12 here?
A: inactive: -1.29%

Q: For Cn1nnnc1SCCNC(=O)C1CCC(=O)N(CCc2ccccc2)C1 (configuration not stated), which “activation, negative = inhibition” value is on record?
A: inactive: 6.37%

Q: For O=C(Oc1oc(-c2ccco2)nc1C=Nc1ccccc1)c1ccoc1, which “activation, negative = inhibition” value is on record?
A: inactive: 4.72%

Q: For O=C1CC(N2CCN(c3ccc(F)cc3)CC2)C(=O)N1Cc1cccs1 (configuration not stated), which “activation, negative = inhibition” value is on record?
A: inactive: -1.91%

Q: For COc1cccc(CNC(=O)C2CCN(S(=O)(=O)N3CCC(C)CC3)CC2)c1, which “activation, negative = inhibition” value is on record?
A: inactive: -0.0932%

Q: Which Potency does the source give for Cc1ccccc1NC(=O)Cc1nc(COC(=O)CC(C)c2ccccc2)cs1 (configuration not stated) here?
A: inconclusive [activator, single point]

Q: For Cc1ccc(OCCn2nnc3ccccc32)cc1C, which Potency is on record?
A: active: 2.51 µM

Q: With c1ccc2oc(NC3=NCN(C4CCCCC4)CN3)nc2c1 as the compound, how does the Potency read?
A: inconclusive [activator, partial curve]

Q: Which “activation, negative = inhibition” value does the source give for COc1ccc(CNCC(=O)Nc2cccc(S(N)(=O)=O)c2)cc1 here?
A: inactive: -7.52%

Q: Which “activation, negative = inhibition” value does the source give for COc1cc2[nH]c(=O)n(CCCCCC(=O)N3CCN(c4ccccc4)CC3)c(=O)c2cc1OC here?
A: inactive: -2.4%

Q: For Cc1ccc2c(c1)COc1c3ccc(C(=O)N[C@@H](CO)C(C)C)cc3nn1-2, which Potency is on record?
A: active: 3.55 µM

Q: Which “activation, negative = inhibition” value does the source give for CC(=O)NS(=O)(=O)c1ccc(NC(=O)c2ccc3c(c2)C(=O)N(CCC(C)C)C3=O)cc1 here?
A: inactive: -1.32%

Q: With Nc1ccc(Cc2nc3cc4ccccc4cc3[nH]2)cc1 as the compound, how does the Potency read?
A: inconclusive [activator, partial curve]

Q: Which Potency does the source give for Nc1cnc(Nc2ccc(Br)cc2)nc1N here?
A: inconclusive [activator, single point]

Q: For O=C(CSc1nccc(=O)[nH]1)Nc1ccc2c(c1)OCCO2, which Potency is on record?
A: active: 2.24 µM

Q: For COC(=O)c1ccc(NC(=O)Nc2ccc(F)cc2)cc1, which Potency is on record?
A: inconclusive [activator, partial curve]

Q: With COc1cccc(Nc2nnc(SCn3nnc4ccccc4c3=O)s2)c1 as the compound, how does the “activation, negative = inhibition” value read?
A: inactive: -8.92%

Q: Which Potency does the source give for CCC(Sc1nnnn1C)C(=O)Nc1ccc(C(C)=O)cc1 (configuration not stated) here?
A: inconclusive [activator, single point]

Q: For O=C(CN1CCCCC1)Nc1nc(-c2ccc(F)c(F)c2)cs1, which Potency is on record?
A: inconclusive [activator, partial curve]

Q: For CC(/C=C/c1ccc(N(C)C)cc1)=N\N=C(/N)SC1CC(=O)N(c2ccc(C(=O)O)cc2)C1=O (configuration not stated), which Potency is on record?
A: inconclusive [activator, partial curve]

Q: Which “activation, negative = inhibition” value does the source give for Nc1cc2ccncc2c2ccccc12 here?
A: inactive: 0.0211%

Q: For Cc1ccc(-c2nc3cc(C)ccc3o2)cc1, which Potency is on record?
A: active: 0.631 µM

Q: Which Potency does the source give for Clc1cnc(N/N=C/c2ccco2)c(Cl)c1 here?
A: active: 0.794 µM

Q: Which Potency does the source give for CN(Cc1nc(-c2cccs2)no1)CC1COCCO1 (configuration not stated) here?
A: inconclusive [activator, single point]

Q: With CCN(CC(=O)NC(C)(C)C)C(=O)c1ccc2c(c1)S(=O)(=O)c1ccccc1C2=O as the compound, how does the “activation, negative = inhibition” value read?
A: inactive: -2.92%

Q: Which “activation, negative = inhibition” value does the source give for CC(=O)OCC1(C)CN(c2ccccc2)N(C(C)=O)C1=O (configuration not stated) here?
A: inactive: 7.77%

Q: Which Potency does the source give for O=C(CSc1nnc(-c2ccc(Cl)s2)o1)N1CCOCC1 here?
A: inconclusive [activator, partial curve]

Q: Which Potency does the source give for Cc1cc(/C=N/NC(=O)c2cccc(N(C)C)c2)c(C)n1-c1cc(C(=O)O)cc(C(=O)O)c1 here?
A: inconclusive [activator, single point]

Q: With COc1cccc(-c2noc(C3CCCN(C(=O)c4ccccc4OC)C3)n2)c1 (configuration not stated) as the compound, how does the “activation, negative = inhibition” value read?
A: inactive: 29.8%

Q: With Cc1ccc(C(=O)NCCc2ccccc2)cc1S(=O)(=O)N1CCOCC1 as the compound, how does the Potency read?
A: inconclusive [activator, single point]

Q: For CC(C)(C)c1ccc(C(=O)N2CCN(CCNC(=O)C(=O)NCc3ccc(Cl)cc3)CC2)cc1, which “activation, negative = inhibition” value is on record?
A: inactive: -9.62%

Q: Which Potency does the source give for CN(c1cccc(NC(=O)COc2ccccc2)c1)S(C)(=O)=O here?
A: inconclusive [activator, partial curve]

Q: Which Potency does the source give for COc1ccc(NC(=O)Nc2ccc(F)cc2F)cc1 here?
A: active: 2.82 µM

Q: With CCC(=NC)C1=C(O)CC(c2ccccc2)CC1=O (configuration not stated) as the compound, how does the Potency read?
A: inconclusive [activator, single point]

Q: Which Potency does the source give for Cc1ccc(S(=O)(=O)N2CCC(C(=O)N3CCC3)CC2)cc1 here?
A: active: 3.16 µM

Q: Which “activation, negative = inhibition” value does the source give for CCC1CCCCN1CCCNC(=O)c1ccc2nc(N3CCC(C)CC3)sc2c1 (configuration not stated) here?
A: inactive: -37.6%

Q: With FC(F)(F)c1cc(Cl)c2nc(-c3ccccc3)cn2c1 as the compound, how does the Potency read?
A: inconclusive [activator, single point]
